Measured values from PubChem BioAssay AID1963576 (National Center for Advancing Translational Sciences (NCATS), 2024).
In all, about 46,000 compounds went through this assay and about 60 (0.1%) were called active. About 3% were inconclusive and are not listed. Calls follow the shape of the dose curve; as a rule, active = well fitted inhibition curve with a large enough effect; inconclusive = small, poorly fitted or top-dose-only effect; inactive = no such curve, though single readings can be large or run the other way. This is one part of the list.

Experiment: Primary qHTS assay for Inhibitors of ovarian cancer metastasis using an organotypic tumor microenvironment (TME) model. Also: nearly all actives have a fitted effect of over 65% in size.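 As to activity change, negative = inhibition: plate controls were DMSO wells for no effect and tomatine positive control wells for full effect.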
Conditions: SKOV3ip1-GFP adhesion/invasion on 3D omental model, fluorescence; series mostly up to 45.8 µM; activity change, negative = inhibition: at the top concentration
In short: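 A 3D layer of primary human omental fibroblasts, mesothelial cells, fibronectin and collagen I, grown 48 hr, received SKOV3ip1-GFP cells in serum-free medium plus compounds at 0.36-46 umol/L. After 2 hr RT and 16 hr 37 C, fixed adherent GFP cells were counted; normalized to DMSO and tomatine.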

Activity change, negative = inhibition, inactive:
Cc1ccc(OCC(=O)Nc2ccc3[nH]c(=O)sc3c2)cc1 6.46%
COc1ccc(NC(=O)C(C)Sc2cc(-c3ccccc3)nc(C)n2)cc1Cl (configuration not stated) -25.9%
O=C1CN(C(=O)Nc2ccccc2Cl)C(c2ccccc2)c2c(sc3c2CCCC3)N1 (configuration not stated) -9.57%
COc1ccc(S(=O)(=O)Nc2cc3c(cc2N2CCOCC2)n(C)c(=O)n3C)cc1 1.33%
O=C(CCn1c(=O)c2cccn2c2cccnc21)NCc1ccccc1F -0.84%
COc1cccc(NC(=O)c2ccc3[nH]c(C)cc(=O)c3c2)c1 5.53%
CCCc1cc(=O)oc2cc(C)c3c(C(C)(C)C)coc3c12 3.67%
CCC1CCc2nc3sc(C(=O)Nc4cccc(C(F)(F)F)c4)c(N)c3cc2C1 (configuration not stated) 2.24%
CCc1nn2c(=O)cc(COC(=O)c3ccc(NC(=O)C4CCCCC4)cc3)nc2s1 20%
O=C(COc1ccc(F)cc1)Nc1ccccc1OCc1cc(=O)n2ccccc2n1 -4.9%
COC(=O)c1ccc(Cn2nc(-c3ccc(C)cc3)ccc2=O)cc1 2.46%
CCOc1ccc(C(=O)Nc2ccc3oc(-c4ccc(Br)cc4)nc3c2)cc1 6.95%
CCOc1ccc(NS(=O)(=O)c2ccc3[nH]cc(C(=O)N4CCCCCC4)c(=O)c3c2)cc1 4.2%
COc1ccc(N(CC(=O)Nc2cc(Cl)ccc2C)S(=O)(=O)c2c(C)noc2C)cc1 -30.2%
COc1cccc(CNS(=O)(=O)c2ccc(-c3cc(C(F)(F)F)on3)s2)c1 6.63%
Cn1c(SCc2ccccc2Cl)nc2c([nH]c3ccccc32)c1=O -2.63%
COc1cccc(CN2C(=O)C3(SCC(=O)N3c3ccc(C(C)C)cc3)c3ccccc32)c1 (configuration not stated) -8.59%
NC(=O)CSc1nnnn1-c1cccc(O)c1 5.91%
CCc1cccc(NC(=O)c2oc3ccc4c(c3c2C)C(=O)CC(C)(C)O4)c1 5.03%
Cc1cccc(CCNC(=O)CCc2c(C)nc3ncnn3c2C)c1 -8.17%
COc1ccc(N2CCN(C(=O)c3sc4nc5n(c(=O)c4c3C)CCC5)CC2)cc1 -3.23%
COc1ccc(Cc2nc3ccc(C(=O)NCCCN4CCN(C)CC4)cc3o2)cc1 13.4%
Cc1ccccc1-c1nc(SCC(=O)NCC2CCCO2)c2c(=O)n(C)c(=O)n(C)c2n1 (configuration not stated) 4.34%
Cc1cc(C(=O)Nc2cccc(F)c2)c2c(C)nn(-c3cccc(Cl)c3C)c2n1 -4.83%
CCOc1ccc(C(=O)Nc2ccccc2OCc2cc(=O)n3ccccc3n2)cc1 -4.35%
CCCNC(=O)c1cnc2sc(N3CCCCCC3)nn2c1=O -0.201%
CCOC(=O)c1c(NC(=O)c2cc3nc(-c4ccccc4)cc(C(F)(F)F)n3n2)sc2c1CCC(C)C2 (configuration not stated) 4.97%
Cc1ccccc1C(=O)OCc1cc(=O)n2c(C)csc2n1 0.319%
CN(C)c1ccc(C(=O)Nc2cccc(-c3nc4cccnc4s3)c2)cc1 0.0106%
CCOC(=O)Cn1c(=O)n(-c2ccccc2OC)c2nc(-c3ccccc3F)nc(C(N)=O)c21 6.84%
CCOC(=O)N1CCC(=C2c3ccc(Cl)cc3CCc3cccnc32)CC1 -3.49%
COc1ccc(CCNC(=O)c2nc(SCc3ccc(C)cc3)ncc2Cl)cc1OC -19.4%
COc1ccccc1OCCCCn1c(-c2ccc(Cl)cc2)nc2ccccc2c1=O -2.53%
COc1cccc2cc(-c3csc(-c4ccc(Cl)cc4)n3)c(=O)oc12 0.391%
COc1cccc(Cn2c(SCC(=O)N(C)c3ccccc3)nc3ccccc32)c1 2.87%
Cc1ccc(CCNC(=O)c2cc(C)nc3c2c(C)nn3-c2ccc(C)cc2)cc1 5.94%
O=C(Nc1ccc(C(F)(F)F)cc1)C1CCN(c2cnccn2)CC1 3.28%
Cc1ccc(CCNC(=O)c2ccc(CNS(=O)(=O)c3ccccc3)cc2)cc1 7.42%
CCc1ccc(-n2nc(C)c3c(C(=O)Nc4cc(C)c(Cl)cc4OC)cc(C)nc32)cc1 4.3%
CCc1ccc(-c2nn(CC(=O)NCc3ccccc3)c3c2cnc2ccc(C)cc23)cc1 1.32%
Cc1ccc(-c2nc(CS(=O)(=O)CC(=O)NCc3ccc(Cl)cc3)c(C)o2)cc1 16.7%
COC(=O)c1ccc(Cn2c(SCc3ccccc3)nc3ccncc32)cc1 3.11%
Cc1ccccc1CNC(=O)c1ccc(CSc2nc3cccnc3n2Cc2ccccc2)cc1 4.79%
O=C(Nc1ccc(F)c(C(F)(F)F)c1)Nc1nnc(-c2ccncc2)s1 -2.45%
CCc1c(C)c2ccc(O)c(CN3CCN(c4ccc(OC)cc4)CC3)c2oc1=O -9.58%
Cc1cc(C)cc(NC(=O)Nc2ccccc2OCc2cc(=O)n3ccccc3n2)c1 0.186%
COc1cc(NC(=O)Cn2cnc3c2c(=O)n(C)c(=O)n3C)c(OC)cc1Cl -7.44%
CCOC(=O)c1c(NC(=O)/C(C#N)=C/c2ccccc2)sc2c1CCC2 -11.3%
CCOc1ccc(NC(=O)c2c(NC(=O)c3ccccc3F)sc3c2CCC3)cc1 2.25%
CCOc1ccccc1NC(=O)c1c(NCc2cccs2)sc2c1CCCCC2 -10.6%
CCN(CC)S(=O)(=O)c1ccc(NC(=O)c2c(C)oc3ncnc(N4CCOCC4)c23)cc1 -1.26%
CCn1c(C)c(C)c2cc(C(=O)NCc3ccc(OC)cc3OC)ccc21 -9.88%
COc1ccc2c(c1)CC(C(=O)NCCCN1CCN(c3ccccc3F)CC1)CO2 (configuration not stated) 10.5%
CCC(=O)N1CCc2cc(Br)cc(S(=O)(=O)CCC(=O)Nc3ccc(C)c(F)c3)c21 -2.23%
C#CCn1cnc2c(cnn2-c2ccc(F)cc2)c1=O 3.99%
COc1cccc2c1Oc1ncccc1N(C(=O)CCC(=O)NC(C)C)C2 4.71%
CCc1c(C)sc2c1CCN(C(=O)Nc1cc(Cl)c(OC)cc1OC)C2c1ccccc1 (configuration not stated) -4.62%
Cc1ccc(-c2nnc(Nc3ccc(OCC(N)=O)cc3)c3ccccc23)cc1S(=O)(=O)N(C)C 2.31%
CCOc1ccc(Nc2nc(C)c(NC(=O)c3ccc(C)cc3)c(Nc3ccc(OCC)cc3)n2)cc1 -15.8%
COc1cc(NC(=O)CC(C)S(=O)(=O)c2ccc3c(c2)CCN3C(C)=O)cc(OC)c1OC (configuration not stated) 19%
O=C(CSc1nnc2scc(-c3ccc(Cl)cc3)n12)Nc1cccc(C(F)(F)F)c1 19.6%
CCN1CCN(c2ncc3c(n2)CCN(Cc2sccc2C)C3)CC1 -2.21%
Cc1ccccc1NC(=O)C(=O)NCC1(c2ccccc2)CCCC1 3.88%
COc1ccc(Cl)cc1NC(=O)c1cnc(SC)nc1-c1ccccc1 7.64%
Cc1sc2ncn(CC(=O)N3CCN(c4ccccc4)CC3)c(=O)c2c1S(=O)(=O)N1CCN(c2ncccn2)CC1 20.1%
CN(CC(=O)Nc1ccc(Cl)cc1F)S(=O)(=O)c1ccc2c(c1)n(C)c(=O)c(=O)n2C -34.4%
CCc1ccc(C(c2ccccc2)c2c[nH]c3ccc(C)cc23)s1 (configuration not stated) 3.81%
CCOC(=O)Cc1ccc(NC(=O)N2CCc3c(sc4c3CCCC4)C2c2ccc(F)cc2)cc1 (configuration not stated) -11.2%
CC(C(=O)Nc1ccccc1C(F)(F)F)n1nnc2sc3c(c2c1=O)CCCC3 (configuration not stated) -0.581%
Cc1ccc(NC(=O)c2cccc(N3CCCS3(=O)=O)c2)cc1C 5.72%
Cc1ccc(NC(=O)[C@H]2O[C@@H]3OC(C)(C)O[C@@H]3[C@H]3OC(C)(C)O[C@H]32)cc1F 3.78%
CSc1nc(Nc2ccc(C)cc2)c(C#N)c(-c2ccccc2)n1 -25.8%
CCS(=O)(=O)NCC(c1ccco1)N1CCN(c2ccccc2)CC1 (configuration not stated) 3.2%
CCc1ccc(CNC(=O)CSc2c3c(nc4ccc(Cl)cc24)CCCC3)cc1 -5.68%
Cc1ccc(NC(=O)c2cc3nc(-c4ccc5c(c4)OCO5)cc(C(F)(F)F)n3n2)cc1Cl 6.03%

outcome, inactive:
COc1ccc(-n2ccn(Cc3ccccc3C)c(=O)c2=O)cc1
Cc1nn(-c2ccccc2)c2c1N(CCCC(=O)NCc1ccccc1)C(=O)CS2
COc1ccc(-c2noc(-c3ccc(NC4CCCCC4)c([N+](=O)[O-])c3)n2)cc1
CCOC(=O)c1ccc(N2C(=O)Cc3cc(OCC)c(OCC)cc3C2c2ccccc2)cc1 (configuration not stated)
O=C(c1ccc2c(c1)OCCO2)N(Cc1cccnc1)c1nc2c(F)cc(F)cc2s1
COCCNC(=O)c1ccc2c(=O)n(CCOC)c(SCC(=O)c3c[nH]c4ccccc34)nc2c1
CCc1nn(CC(=O)NCc2ccc(OC)c(OC)c2)c(=O)c2cc3sc(C)cc3n12
O=C(CN1CCSc2ccccc21)N1CCCCC1
CCOc1ccccc1NC(=O)Cn1c(=O)n(-c2ccc(F)cc2)c(=O)c2c3c(sc21)CN(C(C)=O)CC3
CC(C)c1ccc(NC(=O)CCS(=O)(=O)c2cccc3nonc23)cc1
CCc1ccc(-n2c(SCc3ccccc3C)nc3[nH]ncc3c2=O)cc1
CC(=O)Nc1ccc(NC(=O)c2cc3sccc3n2Cc2ccc(Cl)cc2)cc1
CCOc1cc(/C=C(\C#N)C(=O)Nc2ccc(C)cc2)ccc1OCc1cc(=O)n2nc(CC)sc2n1
CCC(=O)N1CCc2cc(CNS(=O)(=O)c3ccc(NC(=O)CC(C)C)cc3)ccc21
CC(C)(C)c1ccc(C2=NC(C)(C)N(CC(=O)Nc3ccc(F)c(F)c3)C2=O)cc1
CCc1cccc(-n2nnc(-c3nsc(NC(=O)c4ccc(C)cc4)n3)c2C)c1
CCn1c(=O)c2cc(C(=O)N3CCN(c4cccc(OC)c4)CC3)sc2c2ccccc21
COc1ccc(Cl)cc1Nc1nc2ccc(C(=O)c3ccccc3)cc2n2cnnc12
Cc1ccc(NC(=O)CN(C)S(=O)(=O)c2cccc3cccnc23)cc1F
Cc1ccc2c(c1)C(c1ccccc1)N(C(=O)c1ccc(S(=O)(=O)N3CCCCC3)cc1)CC(=O)N2 (configuration not stated)
O=C(NCCn1cc(SCc2ccccc2F)c2ccccc21)c1cccs1
O=C(NCc1ccc(F)cc1)c1ccc(CS(=O)Cc2ccc(Cl)cc2)o1 (configuration not stated)
